Switch fluorescence ratio data for 67 sequences are collected here from the supplement of paper PMC10126150.

Values marked as one replicate rest on one cluster of the flow cell; about a third of the high ones do not repeat.
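Note: ATP exposure 15 min at 22 °C before imaging.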

The subject of this series is ATP. Nature of the series: switch fluorescence ratio, 500 uM ATP over buffer (Cy3 cluster intensity, sum of 5 cycles each) (fold (ratio)); higher = stronger signal-on switching upon ATP binding; sequences stand for … in TCGTCGGCAGCGTCAGATGTGTATAAGAGACAGTTTTTTTTTTTTTTTTTTTTTTTTT…TC. The settings on record: aptamer strand: ATP DNA aptamer (quencher-CACCTGGGGGAGTATTGCGGAGGAAGG + anchor), 100 nM annealed; ATP concentration: 500 uM; one replicate. In outline: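 The quencher-labelled ATP aptamer, at 100 nM, was annealed to Cy3-labelled switching-strand clusters on a modified Illumina MiSeq flow-cell. The clusters were imaged in selection buffer, then after 15 min with 500 uM ATP at 22 °C, and this buffer/ATP cycle ran five times with NaOH stripping and re-annealing between runs. Per-cluster fluorescence ratios, summed target-cycle over summed buffer-cycle Cy3 intensity, were averaged per switch-domain sequence. Clusters outside 100-1000 RFU were excluded.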
For TTTATTGTAT, the switch fluorescence ratio was found to be 0.961.

Take CGTTATACC: the switch fluorescence ratio turned out to be 1.19.

Regarding CTCGAAACGA, the switch fluorescence ratio is 1.04.

For GAAGGTTTTA, the switch fluorescence ratio is 0.957.

TTTTGAGAAG: the switch fluorescence ratio was 0.992.

In the case of AATAGGCCGA, the switch fluorescence ratio is 1.03.

For AAGGGATATT, the switch fluorescence ratio came to 0.986.

On to CTTAAAGCTC, for which the switch fluorescence ratio amounted to 1.06.

As to GATGGCTTCG, the switch fluorescence ratio came to 0.972.

For the sequence TTCCTGAAC, the switch fluorescence ratio turned out to be 1.26.

With TGGACGTCAG, the switch fluorescence ratio was 0.956.

Turning to GGCATGTTCT, the switch fluorescence ratio is 0.998.

For the sequence TGACTAGGCT, the switch fluorescence ratio was 1.03.

Consider GTAGTAGGT, for which the switch fluorescence ratio turned out to be 1.

As for TTTAGATGGC, the switch fluorescence ratio was 0.939.

Consider AAAGGTTGAA, for which the switch fluorescence ratio is 0.979.

Take GACATTACGG: the switch fluorescence ratio was found to be 1.17.

In the case of TCATTGCGG, the switch fluorescence ratio was found to be 0.998.

For the sequence AGTAGAGGGC, the switch fluorescence ratio came out at 1.01.

Consider TTGAAAATAC, for which the switch fluorescence ratio worked out at 1.05.

Regarding CAGTGGTGTT, the switch fluorescence ratio came out at 0.982.

GACGTACAGT: the switch fluorescence ratio worked out at 1.47.

Turning to TCGATCTCGA, the switch fluorescence ratio turned out to be 1.01.

Regarding ATTGCTCTTG, the switch fluorescence ratio is 0.993.

As for ATGGAAGGGG, the switch fluorescence ratio was determined as 0.994.

Take CATAGGGCCT: the switch fluorescence ratio is 0.992.

As for TTTTCCAAT, the switch fluorescence ratio was 1.06.

With TACCTTAATG, the switch fluorescence ratio turned out to be 1.02.

With GATTCATGTA, the switch fluorescence ratio was 0.979.

ATGGAAGAGT: the switch fluorescence ratio is 0.969.

Consider TCGAACGA, for which the switch fluorescence ratio was 1.03.

For CGATGTGAC, the switch fluorescence ratio is 1.24.

As for CCCATGATGC, the switch fluorescence ratio was 1.33.

As for CCGGGGAAAT, the switch fluorescence ratio was 1.1.

Turning to TGCAGGGTTA, the switch fluorescence ratio worked out at 1.05.

ATTGTTAGGC: the switch fluorescence ratio came to 0.997.

As for CAGCTAAAAA, the switch fluorescence ratio was 1.63.

Regarding AATTGTTGAC, the switch fluorescence ratio turned out to be 1.03.

CGCCCGAGAT: the switch fluorescence ratio is 1.36.

Consider ACTGGGGTTG, for which the switch fluorescence ratio amounted to 1.03.

On to CTGGGTATAT, for which the switch fluorescence ratio worked out at 0.979.

In the case of CGGAATTTGT, the switch fluorescence ratio turned out to be 1.03.

As for GGACTTGTAT, the switch fluorescence ratio worked out at 0.982.

For the sequence GTTGCTATCG, the switch fluorescence ratio is 0.984.

For the sequence TGTTGTATCG, the switch fluorescence ratio stood at 0.991.

For the sequence CTGTACGATG, the switch fluorescence ratio is 0.997.

Consider CTTGTCGGTC, for which the switch fluorescence ratio is 0.992.

With ATTTATTCAC, the switch fluorescence ratio was 0.998.

ACTGTTGGTG: the switch fluorescence ratio came out at 1.05.

For the sequence TAGTGCAGCA, the switch fluorescence ratio came to 0.984.

TCTCCCATCT: the switch fluorescence ratio came to 1.44.

Consider TCTCGCGTTC, for which the switch fluorescence ratio was found to be 1.58.

Turning to TACGTCGCAG, the switch fluorescence ratio amounted to 1.03.

On to ATGGCTGGTT, for which the switch fluorescence ratio came to 0.963.

Consider GAGGACCCCT, for which the switch fluorescence ratio is 1.05.

For the sequence GTCGCACTAT, the switch fluorescence ratio came to 1.19.

In the case of ATTTTATCT, the switch fluorescence ratio was 1.02.

On to CTGTTAAGT, for which the switch fluorescence ratio amounted to 0.925.

On to CATCCCCATA, for which the switch fluorescence ratio worked out at 2.18.

For AAAGTTTATC, the switch fluorescence ratio was found to be 0.977.

Regarding GATATCCAGT, the switch fluorescence ratio amounted to 0.962.

Take TTTTGTTGC: the switch fluorescence ratio came to 1.01.

On to TTCAGTTGTT, for which the switch fluorescence ratio is 1.02.

For the sequence ATTGGAAAAT, the switch fluorescence ratio was determined as 0.997.

Turning to CCGAACCCTG, the switch fluorescence ratio stood at 1.18.

Turning to GGACTCGGGA, the switch fluorescence ratio came to 0.968.

Take CGGGTGTGAT: the switch fluorescence ratio worked out at 1.03.
